Reference: PubChem BioAssay AID1240 (Sanford-Burnham Center for Chemical Genomics, 2008)
The campaign covered roughly 50,000 compounds. About 800 (1.6%) showed an effect of 50% or more. The list shows a part of the results.

These molecules were tested against Bcl-2-like protein 10 (Homo sapiens) (UniProt Q9HD36) (assay: TR3 peptide-Bcl-B binding displacers, biochemical primary FP assay, phenotype converters (AID 1240;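 further: 0% = Bcl-B with tracer peptide and DMSO and 100% = tracer peptide lacking Bcl-B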)). Details: GST-Bcl-B / FITC-TR3 peptide fluorescence polarization; stronger effect = higher value; compound at 3.75 mg/L.
Sequence of UniProt Q9HD36 (Q9HD36 whole entry, looked up): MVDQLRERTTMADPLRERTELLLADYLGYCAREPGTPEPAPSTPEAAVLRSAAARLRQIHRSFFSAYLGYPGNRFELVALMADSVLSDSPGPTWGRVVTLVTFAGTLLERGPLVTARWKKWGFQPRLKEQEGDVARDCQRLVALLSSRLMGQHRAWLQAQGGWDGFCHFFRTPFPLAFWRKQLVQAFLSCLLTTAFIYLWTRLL

| SMILES | displacement [%] |
| --- | --- |
| CCc1cccc(C)c1NC(=O)c1cc(OC)c(OC)cc1[N+](=O)[O-] | 15.6 |
| CC(=O)c1cccc(N/C=C/[N+](=O)[O-])c1 | 15.2 |
| Cc1c(NC(=O)/C=C/c2ccc(Cl)cc2)cccc1-c1nc2ncccc2o1 | 19 |
| COc1ccc(N2C(=O)/C(=C\c3ccc4c(c3)OCO4)SC2=S)cc1 | 18.8 |
| O=C(Nc1ccccc1C(F)(F)F)C1COc2ccccc2O1 (stereo not given) | -3.4 |
| Cc1cc(/C=N/NC(=O)c2ccccn2)c(C)n1-c1cccc(Cl)c1 | -15.5 |
| CC(=O)c1ccc(NC(=O)c2ccc(-c3ccc(Br)cc3)o2)cc1 | 4.7 |
| Cc1cc(N(C)/N=C/c2ccccc2Cl)nc(-c2ccccc2O)n1 | 5.1 |
| CCC1=NN2C(=N)/C(=C/c3ccc(-c4ccc(C(=O)O)cc4)o3)C(=O)N=C2S1 | 44.1 |
| O=C(c1cccc([N+](=O)[O-])c1)c1ccc2c(c1)C(=O)N(NC(=O)c1ccco1)C2=O | 14.1 |
| CC(Oc1ccccc1)C(=O)Nc1ccccc1I (stereo not given) | -3.2 |
| O=C1CCCc2nc(-c3ccccc3)cc(-c3ccccc3)c21 | 6.3 |
| Cc1cccc(NC(=O)COc2ccc3ccccc3c2)n1 | -0.5 |
| CC(C)(C)NC(=O)CC12CC3CC(C1)CC(CC(=O)NC(C)(C)C)(C3)C2 | 4.4 |
| O=[N+]([O-])c1ccc(NCCNS(=O)(=O)c2ccccc2)c(Cl)c1 | 9.8 |
| CC1(C)CC(=O)C2=C(C1)Nc1ccccc1N(C(=O)Cc1ccccc1)C2c1cccc(O)c1 (stereo not given) | -14.3 |
| COc1cccc(CN2CCN(Cc3cccn3C)CC2)c1 | 17.7 |
| COc1ccc(N2C(=O)C3ON(c4ccccc4)C(c4ccco4)C3C2=O)cc1 (stereo not given) | -5.5 |
| Cc1ccc(OCC(=O)N2CCN(c3ccc([N+](=O)[O-])cc3)CC2)c(Br)c1 | -3.8 |
| COc1c(Cl)ccc(Cl)c1C(=O)Nc1ccc(C)cc1 | -7.9 |
| NC1=NN(c2ccc(N)cc2)CC1 | 48.8 |
| COc1ccc(/C=c2\sc3nc(-c4ccc(Cl)cc4Cl)nn3c2=O)cc1 | 19.2 |

| SMILES | displacement [%] |
| --- | --- |
| Cc1cccc(NC(=O)Nc2ccc(-c3nc4ccccc4s3)cc2)c1 | 16.3 |
| C/C(CC(=O)Nc1ccc(Nc2ccccc2)cc1)=N\NC(=O)c1ccccc1C | -13 |
| O=C(CSc1nc2ccccc2[nH]1)Nc1ccc2c(c1)oc1ccccc12 | 4 |
| Cc1nc(NC(=O)c2ccccc2)sc1-c1csc(Nc2ccc(N)cc2)n1 | 6.4 |
| NC(=O)c1c(NC(=O)/C=C/C(=O)O)sc2c1CCCC2 | -0.6 |
| COC(=O)c1ccccc1NC(=O)CN(c1ccc(OC)cc1)S(C)(=O)=O | 8.1 |
| CC12CC3CC(C1)CC(CC(=O)O)(C3)C2 | -9.3 |
| N#C/C(=C/c1ccc(C#N)cc1)C(=O)Nc1cccc(Br)c1 | -8.5 |
| COc1ccc(/C=C(/NC(=O)c2ccco2)C(=O)N2CCCCC2)cc1 | 3.9 |
| O=C(NCCCN1CCOCC1)c1cc2n(n1)C(C(F)(F)F)CC(c1ccc(Cl)c(Cl)c1)N2 (stereo not given) | 6.5 |
| CC1=C(C(=O)OCCC(C)C)C(c2ccc(Cl)cc2)NC(=O)N1 (stereo not given) | 8.4 |
| Cc1cc(N2C(=O)NC(=O)/C(=C\c3ccc(N(C)C)o3)C2=O)ccc1Br | 153 |
| COc1ccc(C)cc1NC(=O)C1CC1c1ccccc1 (stereo not given) | -0.4 |
| COc1ccc(CNC(=O)COc2cc(C)c(Cl)c(C)c2)cc1 | -7.9 |
| O=C(c1cccc(Cl)c1Cl)N1CCN(c2ccc([N+](=O)[O-])cc2)CC1 | 9.6 |
| CCOC(=O)C1=C(C)NC2=C(C(=O)CCC2)C1c1ccsc1 (stereo not given) | 5.2 |
| CCOc1cccc2c1N(C(C)=O)C(C)(C)C(=S)C2=C1SC(C(=O)OC)=C(C(=O)OC)S1 | 2 |
| CCc1ccc(NC(=O)C(=O)NCCN2CCN(C(=O)c3ccccc3Cl)CC2)cc1 | 5.6 |
| O=C(/C=C/c1ccco1)NCCCCNC(=O)/C=C/c1ccco1 | 18.3 |
| O=C(O)/C=C/C(=O)Nc1ccc(S(=O)(=O)N2CCCCCC2)cc1 | 10 |
| O=c1c2ccccc2nc(SCc2ccccc2)n1Cc1ccccc1 | -0.7 |
| N#C/C(=C(/O)CN1C(=O)c2ccccc2C1=O)c1nc2ccccc2[nH]1 | -1.5 |

| SMILES | displacement [%] |
| --- | --- |
| COc1ccc(C(=O)Nc2nc(-c3ccccc3)c(-c3ccccc3)s2)cc1[N+](=O)[O-] | 15.8 |
| O=C1c2cccc3cccc(c23)C(=O)N1CCOc1ccccc1Cl | -0.4 |
| O=C(/C=C/c1cc(Br)cs1)Nc1cccc2ncccc12 | 10.9 |
| CCCC(=O)Nc1ccc(NC(=O)c2cc([N+](=O)[O-])ccc2Br)cc1 | -2.5 |
| CCOc1ccc(NC(=O)c2cc3cc(OC)ccc3oc2=O)cc1 | 13.8 |
| CCCCOC(=O)Nc1ccc(S(=O)(=O)Nc2cccc([N+](=O)[O-])c2)cc1 | -1 |
| COc1cc(/C=N\Nc2nc3ccccc3o2)cc(OC)c1OC | -6.9 |
| CC(NS(=O)(=O)c1ccc([N+](=O)[O-])cc1)C(=O)O (stereo not given) | 11.4 |
| COc1cccc(N(CC(=O)O)S(=O)(=O)c2ccccc2)c1 | 5.3 |
| O=C(CN1C(=O)/C(=C/c2ccccc2Cl)SC1=S)Nc1ccc(C(=O)O)cc1 | 3.9 |
| COc1ccc(-c2ccc(/C=C/C(=O)c3ccc(Cl)cc3)o2)cc1 | -16.7 |
| O=C(Nc1c(C(=O)Nc2ccc(Br)cc2)cnn1-c1ccccc1)c1cccc(F)c1 | 1.4 |
| COC(=O)c1ccc(/C=C(/C#N)C(=O)Nc2ccc(O)cc2)cc1 | 1.4 |
| CC(C)c1cc(CN(C)C)cc(C(C)C)c1O | -4.1 |
| COC(=O)c1c(NC(=O)c2cc(OC)c(OC)c(OC)c2)sc2c1C(C(=O)OC)CC2 (stereo not given) | -1 |
| O=C(Nc1ccc(S(=O)(=O)Nc2nccs2)cc1)C1CCCCC1 | 14.5 |
| Nc1ccc(C(c2ccccc2)c2ccc(N)c(Cl)c2)cc1Cl | -1.2 |
| COC(=O)c1cccc(NC(=O)c2cc[n+](C)cc2)c1 | 2.5 |
| COC(=O)c1ccccc1NC(=O)C(c1ccccc1)c1ccccc1 | -5.3 |
| Cc1ccc(Br)cc1S(=O)(=O)n1nnc2ccccc21 | -11.4 |
| COc1ccccc1C(=O)O/N=C(/c1ccncc1)c1ccc([N+](=O)[O-])cc1 | 0.6 |
| CCc1ccc(/C=C2\C(=O)NN(c3ccccc3)C2=O)cc1 | 11.4 |

| SMILES | displacement [%] |
| --- | --- |
| Cc1nnc(SCC(=O)c2ccc(Cl)cc2Cl)s1 | -1.6 |
| COc1cccc(NC(=O)c2cc(Br)ccc2I)c1 | 3 |
| CCOC(=O)C(=O)CSc1ncnc2nc[nH]c12 | 3.9 |
| NC(=O)NC(c1ccccc1)c1ccccc1 | 6.6 |
| O=C(Nc1ccc(I)cc1)C1CCCN1C(=O)Oc1ccccc1 (stereo not given) | 2.5 |
| O=C(c1ccccc1)c1ccc(N2CCCC2)c(F)c1 | -18.9 |
| COC(=O)COc1ccc(/C=C2\C(=O)NC(=S)N(c3ccc(Br)cc3)C2=O)cc1OC | -0.2 |
| CCCS(=O)(=O)c1c(S(=O)(=O)CCC)c2ccc(C(C)=O)cn2c1C(=O)c1ccc(Br)cc1 | -6.6 |
| O=[N+]([O-])c1ccc2c(c1)C1C=CCC1C(c1ccc(F)cc1)N2 (stereo not given) | 6.7 |
| COc1cccc(NC(=O)C(C)Oc2ccc(Cl)cc2Cl)c1 (stereo not given) | -6.5 |
| O=C(N/N=C/c1ccccc1[N+](=O)[O-])/C(=C\c1ccc2c(c1)OCO2)NC(=O)c1ccccc1 | -11.2 |
| CC(C)(C)C1CCc2c(sc3ncn(N)c(=N)c23)C1 (stereo not given) | -3.2 |
| O=C(CC(=O)c1ccccc1)CC(=O)c1ccccc1 | -4.2 |
| c1ccc(CC2=NNC(c3ccccc3)S2)cc1 (stereo not given) | -1.4 |
| CCN(CC)c1ccc(C(=O)NCc2ccccn2)cc1 | 0.8 |
| COc1ccc(C/C(N)=N/OC(=O)c2ccco2)cc1OC | 2 |
| CCCCCC(=O)N/N=C/c1ccccc1 | -13.5 |
| Cc1ccc(/C(N)=N/OC(=O)c2ccc([N+](=O)[O-])cc2)cc1 | 8.5 |
| O=S(=O)(Nc1ccc(N2CCOCC2)cc1)c1ccc(Cl)cc1 | 12.2 |
| O=S(=O)(c1ccc(NC(=S)Nc2ccccc2)cc1)N1CCCCCC1 | -5.7 |
| CCc1nnc(NC(=O)c2ccccc2F)s1 | -3.5 |
| Cc1c(NC(=O)CCCN2C(=O)/C(=C/c3ccccc3)SC2=S)c(=O)n(-c2ccccc2)n1C | 1.5 |

| SMILES | displacement [%] |
| --- | --- |
| CC(C)(C)N1C(=O)c2ccc(C(=O)Nc3c[nH]c(=O)[nH]c3=O)cc2C1=O | -1.6 |
| CCC(=O)Nc1ccc(NC(=O)COc2cc(C)ccc2C(C)C)cc1 | 12.9 |
| Cc1nnc(NC(=O)CSCCSCC(=O)Nc2nnc(C)s2)s1 | -27.1 |
| O=C(Nc1ccc(Cl)cn1)c1ccc(I)cc1 | 11.8 |
| CCOc1ccc(Nc2cc(=O)n(C)c(=O)n2C)cc1 | -4.6 |
| Cc1ccc(OCC(=O)Nc2cccc(C)n2)cc1 | -6.4 |
| Cn1c(CNc2ccccc2O)nc2ccccc21 | 0.7 |
| COc1nc(-c2ccccc2)c2cc(Cl)ccc2n1 | -0.4 |
| COc1ccc(NS(=O)(=O)c2ccc(Cl)c(C(=O)Nc3cccc(C(=O)O)c3)c2)cc1 | -17.3 |
| COc1ccc(CN2CCN(C3CCCCC3)CC2)cc1OCc1ccccc1 | -12.7 |
| Cc1ccccc1OCc1nnc(Sc2nc3ccc([N+](=O)[O-])cc3s2)n1-c1ccccc1 | 7.3 |
| On1c(-c2ccccc2F)nc2c1CCc1nonc1-2 | -6.7 |
| COc1ccc(-n2c(C)ccc2-c2ccccc2)cn1 | 46.2 |
| COCCN1C(=O)C(=O)/C(=C(/O)c2ccccc2)C1c1cccc([N+](=O)[O-])c1 (stereo not given) | 5.5 |
| C=CCN1C(=O)/C(=C/c2ccc(C)cc2)C(=O)NC1=S | -5.3 |
| COC(=O)c1cccc(N2C(=O)c3ccc(Oc4ccc([N+](=O)[O-])cc4)cc3C2=O)c1 | 9.1 |
| CCOc1ccccc1NC(=O)c1c(N)sc2c1CCC2 | -22.9 |
| CCN(CC)C(=O)C(=O)N/N=C/c1cccc(OC)c1 | 13.3 |
| Cc1cc(C(=O)N/N=C/c2c(C)nn(-c3ccccc3)c2C)n[nH]1 | -4 |
| Cc1cc(Br)cc2c1NC(=O)C21OCCO1 | -4.3 |
| CCOC(=O)N1CCN(C2CC(=O)N(c3ccc(Cl)cc3)C2=O)CC1 (stereo not given) | 1.1 |
| COc1ccc(OC)c(N(CC(=O)N2CCOCC2)S(C)(=O)=O)c1 | 2.8 |
